# This is one part of the list.
# Test system: PfSIP2 AP2 domain 1 (GST-tagged)
# Test: gcPBM binding intensity (ln(normalized median fluorescence intensity)); higher = stronger DNA binding
# Procedure, shortened: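 Binding intensity is defined as the maximum Masliner-normalised natural-log median intensity across replicate spots for either probe orientation. It was measured on an Agilent 4 × 180k array of primer-extended double-stranded 36-bp intergenic genomic probes and negative controls, to which GST-tagged P. falciparum DNA-binding domains made in E. coli were applied for 1 h in 1× PBS with 1% milk, 0.2 mg/ml BSA, 0.5% salmon testes DNA and 0.03% Triton X-100. Detection was by Alexa488 anti-GST antibody and scanning at 488 nm.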
row,Sequence,gcPBM binding intensity (ln)
1,AAAGGATATATCCAGAGTACATATTCTGTGTAATAC [XGTACX_site1547],6.92
2,CACAAAAAAAATTATACACACACACCCATATATATA [CACACA_site8255],7.6
3,ATAATTGTTTCTTTCTCCTTTTTATTTCATTTTAAA [CACACA_negctrl_site964],7.05
4,TGTCTTATTTATATTACACACTATATGAAAAAATAT [CACACA_site6807],7.25
5,AAAATAAATAAATACACACACACGAATATTTATATA [CACACA_site6892],6.93
6,ATTATAAAAATATCGTGTACATATTTTTTAAAATAA [XGTACX_site5072],7.12
7,AAAAAAAAAAAAAAAAGTACACATCATTTTATGAAA [XGTACX_site1402],7.84
8,ATTATTTCAATTTTTTTTGTTTTTAAAAAAAAAAAT [CACACA_negctrl_site1387],6.84
9,GAAAACAAAATGGTAACACACAAATGTAAATAGTAT [CACACA_site2113],6.98
10,AAAAAAAAAAAAAAAAGTACTCTATAAGTAACATTT [XGTACX_site6973],7.59
11,ATTTTTTTGTTATTGTTGAAAAGATGGTTCTTTTTT [CACACA_negctrl_site1346],6.95
12,AATTTCTTATTTTGTACACACAATAAATATTCACAT [CACACA_site1612],7.07
13,TAGTAGTTATCATTAACATGCAATAATATTATTTAA [TGCATGCA_site178],6.71
14,AAGTTAGGATAGATCCAATAATTTTTAGTTTCTCTT [GTGCAC_negctrl_site272],6.55
15,ATGAACATATTTTTTTGTACTTATGAAAATATGTTA [XGTACX_site5996],6.86
16,TAATGTTACACAAACTTTTCATTCTTTTTAATAAAT [TGCATGCA_negctrl_site331],6.68
17,ATATAATTATAAAATAAACACACATATATATTTATA [CACACA_site8039],7.05
18,TTATTTATTTATAATTGTACATTGCAAATGAATTTA [XGTACX_site4083],6.72
19,ATATATATATATATATGTACATAGAGAAGTATCTTT [XGTACX_site4737],9.91

row,Sequence,gcPBM binding intensity (ln)
1,AACATTTTAAATTATACACACATTTTGAATATATAT [CACACA_site3470],7.2
2,TGTTGTTGTAATTATTGTACGTTATGCGATTATTAT [XGTACX_site7005],7.2
3,TATACACCCAGACACACACACACACCCAAAAAAAAA [CACACA_site497],7.26
4,AAAATAAACTATAGTACACACTTATTATTATGAAAT [CACACA_site5488],7.06
5,GATATATTTTATATATGTACATACAAGGGTAAATAT [XGTACX_site1202],7.16
6,TCAATTAGACGAAAATGTACATATGTATATATTTTT [XGTACX_site5027],6.84
7,AAAATATGTAGCTACACACACATAAACAAAATAACA [CACACA_site1007],7.01
8,ATTTTATAAAGGAAGTGTACTAATAAATTCAAATTA [XGTACX_site3922],6.91
9,AAGAAAAAATATACTTCACACATTTAATATATAATT [CACACA_site4919],6.79
10,AAAAAAAAAAAAAAATGTACAAATATATACATATAT [XGTACX_site935],7.22
11,AAAAAAGAATTGTGCACACACAAAAAATGTTCATAA [CACACA_site1103],8.77
12,TCGATGTTGGTAGGATGTACGGTACCGGTAGTATTT [XGTACX_site4214],6.82
13,TTTTTTTTTTTTATTTGTACACATTTTCATATTTTT [XGTACX_site4406],7.07
14,TATATTTACTCTAAGTGTACATATTATTTTATAATA [XGTACX_site2046],7
15,TATATATATATGTGCACACATAAAGATATTATTTTT [CACACA_site3733],9.51
16,TAACACATAAATAAATATATACATATATATAAAATA [CACACA_negctrl_site375],6.85
17,AATATATCATAATGATGTACAAGTAAAACCGTTACA [XGTACX_site4280],6.9
18,ATTCTTTTAAACAGTACACACACACCGATATATATA [CACACA_site8213],7.66
19,AATATATATATATATACATGCATATATTCCTTCCTT [TGCATGCA_site890],7.06

row,Sequence,gcPBM binding intensity (ln)
1,TTTGTGCCTATAAATTAACACACAGAAATATATAGA [CACACA_site8175],7.06
2,AAAAACTTATATGATACACACGATAAACAAAATAAA [CACACA_site1039],7.04
3,CAAAAATACATTATAATAATATGCACAATAATAAAT [XGTACX_negctrl_site263],9.12
4,GATCTATATATCATTACACACTTGAATTACTTAAAA [CACACA_site21],7.1
5,ATAAAATAAAATTGGTGTACTTTTGATAAAATAAAA [XGTACX_site4264],7.25
6,TATTTATTTATAAATGCATGTCGCTCTTTTTATTAC [TGCATGCA_site626],6.98
7,ATATATATATATATGTGTACATATAAGATAGAAGAA [XGTACX_site3198],9.38
8,TTATGCATAAAAGGTGGTACTCCGTATATACATTCT [XGTACX_site4354],7.27
9,AACTATAAAAGTTTTACACACTGTTTTTAAATAATG [CACACA_site7686],6.8
10,ATTATTATAGATATAACACACATAATTACATACTTA [CACACA_site6837],7.1
11,AAAAGTAAAAAAAGCACACACGAAAAAAAATAAAAA [CACACA_site5264],6.8
12,TCCATAAATAATTGTAGTACACATACTATGTGACAT [XGTACX_site7268],7.31
13,TATTAAAAAAAAAAATAAAAAAATAAAATAAAATAA [CACACA_negctrl_site580],6.68
14,ATAATATTTTAGAGCAGTACACTTTTATATTTATTG [XGTACX_site5728],6.9
15,AGAGGAAAAATAAAAGGAAAAAAGAAAATAATATTG [CACACA_negctrl_site852],6.64
16,ATATATTACAATATATGTACTTAATTTGCTTAAATA [XGTACX_site7912],6.95
17,AAAATAAATATTACATGTACATATATATATATATAT [XGTACX_site8492],9.26
18,TAAAACAGAATGAGGAGTACAAAAAGAAGAAAAGGG [XGTACX_site1246],7.48

# From the supplement of paper PMC11417369
